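Following 48 hours of exposure in 96-well plates, responses at five concentrations were used to interpolate endpoints linearly. GI50 is the concentration that inhibits growth by half. At the TGI there is no net growth.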
What follows are compounds tested on NCI-H322M lung (assay: NCI-60 cell line screen, 48 h).
`CN(C)c1cccc2[nH]c(-c3[nH]ncc3Nc3ccnc(N)n3)nc12` was tested, and the GI50 was 0.0192 µM and the TGI was 0.336 µM.
Work on `Nc1cc(N)c2nc(-c3ccccc3)c(Nc3ccc(F)cc3)nc2c1` yielded a GI50 of 17 µM and a TGI of 35.6 µM.
For `COc1ccc(/C=C/C(=O)NCC(NC(=O)/C=C/c2ccc(OC)c(OC)c2)C(=O)O)cc1OC` (configuration not stated), the TGI was > 100 µM.
With `O=C(Oc1ccccc1)c1cc(O)c(O)c(O)c1` the GI50 was 14.9 µM and the TGI was > 100 µM.
`COc1n[n+]([O-])c(C)cc1[N+](=O)[O-]` showed a GI50 of 21.3 µM and a TGI of 45.5 µM.
In the case of `CCOc1ccc(NCC(=O)N2CC(=O)Nc3ccccc32)cc1`, the TGI is reported as > 100 µM.
`CC(=NNC(=S)Nc1ccccc1C)c1cccc(C(C)=NNC(=S)Nc2ccccc2C)n1` gave a TGI of 56.9 µM.
For `COc1ccc2c(c1)[nH]c(=O)c1c3cccnc3cn21`, the GI50 was 1.24 µM and the TGI was 49.7 µM.
With `FC(F)(F)c1ccc2c(c1)N(CCCN1CCN(C3CC3)CC1)c1ccccc1S2` the GI50 was 16.7 µM and the TGI was 31.9 µM.
`O=C(Nc1ccccc1)N1CCNC1=S` was tested, and the TGI was > 100 µM.
For `NC(=S)N/N=C/c1cc(CN2CCOCC2)c(N)cn1`, the TGI was > 100 µM.
In the case of `O=c1cc/c(=N\Nc2ccccc2)c(=O)/c1=N/Nc1ccccc1`, the GI50 is reported as > 50 µM and the TGI is reported as > 50 µM.
`COc1ccc(CSCc2cc(OC)c(OC)c(OC)c2)cc1` was tested, and the TGI was > 100 µM.
For `[N-]=[N+]=Nc1ncc(-c2ccc(C(F)(F)F)cc2)c(NC2CCCCCC2)n1`, the GI50 was > 10 µM and the TGI was > 10 µM.
`CCOP(=O)(CS(C)=O)O[C@@H]1C[C@H](C)CC[C@H]1C(C)C` (some centres not stated) was tested, and the TGI was 20.7 µM.
Work on `CCc1cc(Cc2cc(CC)c(NC(=O)C3=CC(=O)CC(c4ccc(OC)cc4)O3)c(CC)c2Cl)c(Cl)c(CC)c1NC(=O)C1=CC(=O)CC(c2ccc(OC)cc2)O1` (configuration not stated) yielded a TGI of 75.3 µM.
`COc1ccc(C2CC(=O)Nc3c2c(C)nn3-c2nc3ccccc3[nH]2)cc1` (configuration not stated) was tested, and the GI50 was 3.93 µM and the TGI was > 77.1 µM.
`COc1ccc(CCN2CCC(C#N)(c3ccc(OC)c(OC)c3)CC2)cc1OC` was tested, and the TGI was > 100 µM.
With `COc1c(O)cc(/C=C/c2cc(O)cc3c2[C@@]2(C(=O)O3)c3c(O)cc(O)cc3OC2c2cccc(O)c2)cc1O` (some centres not stated) the TGI was > 100 µM.
With `CN(C)c1ccc(C(C#N)N2CCCN(C(C#N)c3ccc(N(C)C)cc3)C2c2ccc(N(C)C)cc2)cc1` (configuration not stated) the TGI was > 100 µM.
For `Cc1ccc(S(=O)(=O)N(c2ccccc2F)C2CCCCC2O)cc1` (configuration not stated), the TGI was > 100 µM.
With `CCCCCCCCCCCCCCCCCCOc1ccccc1CC(=O)OCC[N+](C)(C)C` the GI50 was 1.68 µM and the TGI was 3.46 µM.
`O=c1nc2n(CCO)c(-c3ccccc3)c(-c3ccccc3)nc-2c(=O)[nH]1` was tested, and the TGI was > 100 µM.
In the case of `Cc1ccc(S(=O)(=O)N/N=C2\C(=O)C3CC2C(Cl)C3Cl)cc1` (configuration not stated), the TGI is reported as > 100 µM.
For `COC(=O)n1c(=O)nc2c3c(ncn21)Oc1c(c(-c2ccccc2)nn1-c1ccccc1)C3c1ccc(Cl)cc1` (configuration not stated), the TGI was 2.95 µM.
With `O=C(Nc1ccccc1Cl)c1cnc2ccc(C3CCNCC3)cn12` the GI50 was 4.67 µM and the TGI was > 100 µM.
For `CCOC(=O)C1CCC/C1=N\N=C(N)N` (configuration not stated) (tested in a mixture with another compound), the TGI was > 100 µM.
With `COC(=O)C1=CN(CC2=CC(=O)C(C)=CC2=O)C=C(C(=O)OC)C1c1cccc(OC)c1OC` the GI50 was 23.7 µM and the TGI was > 75.9 µM.
For `C1=CCN(c2ccccc2)CC1`, the TGI was > 100 µM.
`COc1ccc2oc(=N)c(C(N)=S)cc2c1` was tested, and the TGI was 98.6 µM.
For `Cc1sc2ncnc(Sc3nc4ccccc4[nH]3)c2c1C`, the GI50 was 23.1 µM and the TGI was > 100 µM.
With `Cc1cccc2c3c(sc12)C(c1ccc(Cl)cc1)C(C#N)=C(/N=C/c1ccc(Cl)cc1)O3` (configuration not stated) the GI50 was 0.707 µM and the TGI was > 100 µM.
With `CC1CN=C(NCc2ccccc2)S1` (configuration not stated) the TGI was > 100 µM.
With `CCCCOC(=O)/C(CC(=O)C=C(C)C)=N\NS(=O)(=O)c1ccc(C)cc1` the TGI was > 100 µM.
For `Cc1ccc2c(c1)C(C1Cc3c(C)cccc3C1=O)OC2=O` (configuration not stated), the TGI was > 100 µM.
With `Clc1ccc(C2=Nc3ccccc3SC(c3ccc(Cl)c(Cl)c3)C2)c(Cl)c1` (configuration not stated) the TGI was 38.8 µM.
With `N#Cc1cnn2c1n[n+]([O-])c1ccc(Cl)cc12` the TGI was 10.2 µM.
Work on `N#CCCc1nc2ccc(Br)cc2c(=O)n1-c1ccc(O)c([N+](=O)[O-])c1` yielded a TGI of 31.5 µM.
In the case of `COC(=O)/C=C/c1cc(OC)c2c(c1)C(C(=O)OC)C(c1ccc(OC)c(OC)c1)O2` (configuration not stated), the TGI is reported as > 100 µM.
`O=C1/C(=C/c2cccc([N+](=O)[O-])c2)COc2ccccc21` was tested, and the TGI was > 100 µM.
In the case of `CCNC(=O)C(O)C1(O)CCC2[C@@H]3CCC4=CC(=O)C=C[C@]4(C)C3[C@@H](O)C[C@@]21C` (some centres not stated), the TGI is reported as > 100 µM.
Work on `CC(=O)OCC(=O)[C@@]1(O)[C@H](C)C[C@H]2[C@@H]3C=C(C)C4=Cc5c(cnn5-c5ccc(F)cc5)C[C@]4(C)[C@H]3[C@@H](O)C[C@@]21C` yielded a GI50 of 4.81 µM and a TGI of 16.8 µM.
With `CC1C2CC(C(C3C(=O)C4CC3C(C)(C)C4C)C2=O)C1(C)C` (configuration not stated) the TGI was > 100 µM.
In the case of `COc1ccc(C2(CN(C)C)COc3cc(OC)c(OC)cc3C2=O)cc1OC` (configuration not stated), the TGI is reported as > 100 µM.
`O=C(Nc1ccc(C(F)(F)F)cc1[N+](=O)[O-])C(=O)C(C(=O)c1ccc2ccccc2c1)C1OC(=O)c2ccccc21` (configuration not stated) showed a TGI of 16.4 µM.
`CCOC(=O)c1cc2c(cc1Cl)SC(N(c1ccc(F)cc1)S(=O)(=O)c1ccc(OC)cc1)=NS2(=O)=O` showed a GI50 of 26.8 µM and a TGI of 93.6 µM.

Source: PubChem BioAssay (NCI)
